# Assay results from the supplement of paper PMC8512760.
# The list shows a part of the results. Most values come without repeats; read them as rough.
# Tested on: MDA-468
# Assay: cell viability relative to vehicle (% of vehicle); basal-like triple-negative breast cancer lines; higher = less cytotoxic
# Details: 10 µM; 72 h
# 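Further: stably firefly luciferase-GFP labeled cells in 96-well plates, viability read as luciferase photon flux after d-luciferin addition, treated wells normalized to vehicle wells, single-dose high-throughput screen.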
row,SMILES,cell viability
1,CO[C@H]1/C=C/O[C@@]2(C)Oc3c(C)c(O)c4c(O)c(c(/C=N/N5CCN(C6CCCC6)CC5)c(O)c4c3C2=O)NC(=O)/C(C)=C\C=C\[C@H](C)[C@H](O)[C@@H](C)[C@@H](O)[C@@H](C)[C@H](OC(C)=O)[C@@H]1C [Rifapentine],92.9
2,CC1(C)SC2C(NC(=O)C(N)c3ccccc3)C(=O)N2C1C(=O)[O-].[Na+] (stereo unspecified) [Ampicillin],84.7
3,CCOC(=O)C1=C(C)NC(C)=C(C(=O)OC)C1c1cccc(Cl)c1Cl (stereo unspecified) [Felodipine],99.8
4,CCCC(=O)OC1(C(=O)COC(C)=O)CCC2C3CC(F)C4=CC(=O)C=CC4(C)C3(F)C(O)CC21C (stereo unspecified) [Difluprednate],176
5,CNS(=O)(=O)Cc1ccc2[nH]cc(CCN(C)C)c2c1 [Sumatriptan],112
6,COc1cc2ncnc(Nc3ccc(F)c(Cl)c3)c2cc1NC(=O)C=CCN1CCCCC1,31.7
7,CN1CCC(=C2c3ccccc3CC(=O)c3sccc32)CC1.O=C(O)C=CC(=O)O [Ketotifen Fumarate],101
8,CC(Cc1cc2c(c(C(N)=O)c1)N(CCCO)CC2)NCCOc1ccccc1OCC(F)(F)F (stereo unspecified) [Silodosin],123
9,NC1CCCCC1N.O=C([O-])C(=O)[O-].[Pt+2] (stereo unspecified) [Oxaliplatin],77.4
10,c1cc(CN2CCCNCCNCCCNCC2)ccc1CN1CCCNCCNCCCNCC1 [Plerixafor (AMD3100)],82
11,CNC(=O)C(Cc1c[nH]c2ccccc12)NC(=O)C(CC(=O)NO)CC(C)C (stereo unspecified),69.5
